Experimental data taken from PubChem BioAssay (NCI).
Values joined by “and” are separate entries in the source; they are usually repeats but may differ in a detail not shown here. Equal values may be shown once.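 Five compound concentrations were applied to cells in 96-well plates for 48 hours; endpoints were derived by simple linear interpolation of the resulting dose-response curve. GI50 is the concentration that inhibits growth by half. TGI denotes the concentration required for complete inhibition of growth.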

System: NCI-H322M lung
Assay: inhibition of tumour cell growth, NCI panel, 48 h

`NC(=S)N/N=C/c1ccc(OC(=O)COc2ccccc2Cl)cn1` and `O=C(NC1C=Nc2ccccc2NC1=O)c1ccccc1Cl` (configuration not stated) cannot be ordered by TGI: > 100 µM for the first, > 100 µM for the second.

`CC(=O)C1=NN(c2ccccc2)C2(S1)SC(c1ccccc1)(c1ccccc1)c1ccccc12` (configuration not stated) and `NC(=O)N/N=C(\CCC(=O)N(Cc1ccccc1)Cc1ccccc1)CC(=O)c1ccc(F)cc1` cannot be ordered by TGI: > 100 µM for the first, > 100 µM for the second.

`COc1cc2nncc(SCc3ccc(Cl)c(Cl)c3)c2cc1OC` and `COc1ccc(OC)c(/C=N/N=C2\C(=O)Nc3c(Cl)cc(Cl)cc32)c1` cannot be ordered by TGI: > 100 µM for the first, > 100 µM for the second.

`CC(=O)Nc1nnc(S(=O)(=O)NC(=S)Nc2ccc(Cl)cc2)s1` and `O=C(CC(=O)C1CCOC1=O)C(=O)Nc1ccc(Cl)cc1` (configuration not stated) cannot be ordered by TGI: > 100 µM for the first, > 100 µM for the second.

`COC(=O)C1=C(c2ccc(Cl)cc2)C(O)N=C(NN)N1` (configuration not stated) and `CSc1nc(-c2ccc(Cl)cc2)c(C#N)c(=O)[nH]1` cannot be ordered by TGI: > 100 µM for the first, > 100 µM for the second.

`Cn1c2ccccc2c2[nH]c3ccccc3c(=O)c21` and `O=c1[nH]c2c(c3ccccc13)CCc1ccccc1-2` cannot be ordered by TGI: > 100 µM for the first, > 100 µM for the second.

`N#Cc1c(N2CCOCC2)ncn(-c2ccc(Cl)cc2)c1=O` and `Cn1c(=O)sc2cc(C(=S)N3CCN(c4ccccc4)CC3)ccc21` cannot be ordered by TGI: > 100 µM for the first, > 100 µM for the second.

`O=CN1N=C(c2ccc(Nc3ccnc4cc(Cl)ccc34)cc2)CC1c1ccc(Cl)cc1` (configuration not stated) and `O=C1NC(SCc2ccc(F)cc2)=N/C1=C/c1cccc(OCc2ccc(Cl)cc2)c1` cannot be ordered by TGI: > 100 µM for the first, > 100 µM for the second.

`CN(C)C(=S)SCC(N)=O` and `CCOC(=O)NC(=S)NC(C)c1ccccc1` (configuration not stated) cannot be ordered by TGI: > 100 µM for the first, > 100 µM for the second.

Compared with `CCOC(=O)c1ccc(Nc2cnc3ccc(C(F)(F)F)cc3n2)cc1`, `CCOC(=O)c1c(NC(=O)c2ccc(Br)cc2)sc2c1CCCC2` is higher in TGI: 38.7 µM for the first, > 100 µM for the second.

First: O=C(CN1C(=O)S/C(=C\C(Cl)=C\c2ccccc2)C1=O)NCCCn1ccnc1
Second: O=C(O)CN=c1c2ccccc2n(O)c2ccccc12
The TGI of the first is lower: 20.1 µM for the first, > 100 µM for the second.

First: N#CCN(Cc1ccccc1)[C@@H]1CCC[C@]1(O)C#Cc1ccc2c(c1)OCO2
Second: CC(Cc1ccc2c(c1)OCO2)N(C)C(=O)C1=CCN(C)CC1 (configuration not stated)
The TGI of the first is lower: 39 µM for the first, > 100 µM for the second.

`Cc1cn2c(/C=C3/C(=O)Nc4ccccc43)c(C)nc2s1` and `CCc1n[nH]c(=S)n1/N=C\c1ccc(-c2ccccc2[N+](=O)[O-])o1` cannot be ordered by TGI: > 100 µM for the first, > 100 µM for the second.

`O=C(CC(=O)c1ccccc1)C(=O)NC12CC3CC(CC(C3)C1)C2` and `COC(=O)c1nc(N)nc(C(=O)OC)c1C(=O)c1ccccc1` cannot be ordered by TGI: > 100 µM for the first, > 100 µM for the second.

`O=C(O)CCc1nc2cc3ccccc3cc2[nH]c1=O` and `O=c1[nH]nc(-c2ccccc2)c2c(-c3ccccc3)onc12` cannot be ordered by TGI: > 100 µM for the first, > 100 µM for the second.

`COC1C(OC(N)=O)C(O)C(Oc2ccc3c(O)c(NC(=O)c4ccc(O)c(CC=C(C)C)c4)c(=O)oc3c2C)OC1(C)C` (configuration not stated) and `COc1cccc(C(=O)N[C@@H]2[C@H](O)[C@@H](CO)O[C@H]2n2cnc3c(N)ncnc32)c1` cannot be ordered by TGI: > 100 µM for the first, > 100 µM for the second.

Compared with `CCc1nc(N)nc(N)c1C#CC(C)c1cc(-c2ccnc(C)c2)c2oc(C)nc2c1` (configuration not stated), `COc1cc2nc(N3CCC[C@@H](NC4=CC(=O)c5ccccc5C4=O)C3)nc(N)c2cc1OC` is 3.8-fold lower in TGI: 14.4 µM for the first, 3.79 µM for the second.

`COc1nc(OC)nc(Sc2ccc(Sc3ccc(Sc4nc(OC)nc(OC)n4)cc3)cc2)n1` and `COc1cc2c(Cc3cc(OCc4ccccc4)ccc3N)nccc2c(OC)c1OC` cannot be ordered by TGI: > 100 µM for the first, > 10 µM for the second.

`O=[N+]([O-])c1cc2c(ccc3occc32)o1` and `C/C([O-])=C(/c1nc(-c2ccc([N+](=O)[O-])o2)no1)[n+]1cc(C)ccc1C` are within 1.5-fold of each other in TGI: 28.2 µM for the first, 27.5 µM for the second.

`CCOC(=O)/C(=N/Nc1ccc(Cl)cc1)N1C(=S)C=C(C)NN(C)C1=S` and `N#CC(C(=O)CCC(=O)Nc1ccc(Cl)c(Cl)c1)c1ccc(Cl)cc1` (configuration not stated) cannot be ordered by TGI: > 100 µM for the first, > 100 µM for the second.

`CNc1ncnc2c1cnn2Cc1cn(CCCCO)nn1` and `CCCN(CCC)C(=O)c1c(Cl)c2cccnc2n2c(C)cnc12` cannot be ordered by TGI: > 100 µM for the first, > 100 µM for the second.

`Cc1cc(C(O)CNC(C)CCn2cnc3c2c(=O)n(C)c(=O)n3C)ccc1O` (configuration not stated) and `CC(C)c1cccc(C(C)C)c1NC(=O)C(=O)C1SC(=S)NC1=O` (configuration not stated) cannot be ordered by TGI: > 100 µM for the first, > 100 µM for the second.

Going from `CCOC(=O)Oc1ccc2c(c1)c(=O)c1c(NCCCN(CC)CC)ccc3nnn2c31` to `CCc1c2c(nc3ccc(OCc4ccc(B5OC(C)(C)C(C)(C)O5)cc4)cc13)-c1cc3c(c(=O)n1C2)COC(=O)[C@]3(O)CC`, the TGI rises from 19.1 µM to > 25.4 µM.

Compared with `CCOC(=O)/C=C1\Oc2ccccc2C1(C)O` (configuration not stated), `C=C(CC)C[C@@H]1C[C@]2(C(=O)OC)c3[nH]c4ccccc4c3CCN2C1=O` is lower in TGI: > 100 µM for the first, 69.6 µM for the second.

First: O=c1c(Sc2ncccn2)c(Sc2ncccn2)cnn1CCl
Second: Cn1ncnc1C1c2n[nH]c(=O)c3cc(F)cc(c23)NC1c1ccc(F)cc1 (configuration not stated)
The TGI of the first is lower: 30.9 µM for the first, > 100 µM for the second.

Compared with `COC(=O)[C@@H]1[C@H](O)CC[C@H]2[C@@]1(C)CC[C@@H](C)[C@]2(COC(C)=O)CC(=O)c1ccoc1`, `COC1C(O)C(C)OC(O[C@@H]2C[C@H]3CC[C@@H]4[C@H](CC[C@]5(C)[C@@H](C6=CC(=O)OC6)CC[C@]45O)[C@@]3(C)[C@H](O)C2)C1O` (some centres not stated) is lower in TGI: > 50 µM for the first, 0.575 µM for the second.

`COC(=O)CNCC1OC2OC(C)(C)OC2C1N=[N+]=[N-]` (configuration not stated) and `COC1OC(C(C)O)C2OC(C)(C)OC12` (configuration not stated) cannot be ordered by TGI: > 100 µM for the first, > 100 µM for the second.

First: NS(=O)(=O)c1ccc(N2N=C(c3cccs3)CC2c2ccccc2O)cc1 (configuration not stated)
Second: CCSC12CC3c4cccc5c4C(CN5C(=O)c4ccccc4)CC3(O1)N(C)C2=O (configuration not stated)
The TGI of the first is lower: 11.8 µM for the first, > 100 µM for the second.

`COc1ccc2c(c1)C=C1CSCC3=Cc4cc(OC)ccc4OC13O2` and `COc1ccc(/C=C(\Cl)c2ccc(OC)cc2)cc1` cannot be ordered by TGI: > 100 µM for the first, > 100 µM for the second.

First: O=C1OC(OC/C(Br)=C(/Br)COC2OC(=O)C(Cl)=C2Cl)C(Cl)=C1Cl (configuration not stated)
Second: C[N+]12CCCCC1C(CN1C(=O)c3ccccc3C1=O)CCC2 (configuration not stated)
The TGI of the first is lower: 51.7 µM for the first, > 100 µM for the second.

`COc1cc(Cc2ccc3c(c2C#N)N(C)c2ccccc2S3)cc(OC)c1OC` and `Cc1ccc(Nc2nc(C)c(C(/C=C/c3ccc4c(c3)OCO4)=N/Nc3ccc([N+](=O)[O-])cc3[N+](=O)[O-])s2)c([N+](=O)[O-])c1` cannot be ordered by TGI: > 100 µM for the first, > 100 µM for the second.

Going from `NCCCCCNOCCCN` to `CCCCN(CCCC)CCC(O)c1cc2ccc(C(F)(F)F)cc2c2cc(C(F)(F)F)ccc12` (configuration not stated), the TGI falls from > 100 µM to 27.5 µM.

First: [O-][n+]1c2cc(CN3CCOCC3)c(CN3CCOCC3)cc2[n+]([O-])c2c(O)cccc21
Second: O=C1c2c(ccc3c2CCCC3)CC1Cc1ccc2c(c1)CCCC2 (configuration not stated)
The TGI of the first is lower: 36.3 µM for the first, > 100 µM for the second.

First: CN(CCCN(C)CCC1CCCCC1)CCC1CCCCC1
Second: S=C(Nc1cccc(C2(N3CCCCC3)CCCCC2)c1)Nc1cccc(C2(N3CCCCC3)CCCCC2)c1
The TGI of the first is lower: 17.8 µM for the first, > 100 µM for the second.

First: COC(=O)CCC1(O)C=CC(=O)C=C1
Second: CC(=O)NC1C(OCc2ccccc2)OC(CO)C(O)C1OCC(=O)N1CCCC1C(=O)NC(CCC(=O)NCCCCCNc1c2ccccc2nc2cccc([N+](=O)[O-])c12)C(N)=O (configuration not stated)
The TGI of the first is higher: > 100 µM for the first, 0.464 µM for the second.

`Nc1ccccc1C#C/C=C\C#Cc1ccccc1F` was tested, and the TGI was 35.2 µM.

`O=CN1N=C(c2ccc(Nc3ccnc4cc(Cl)ccc34)cc2)CC1c1ccc(Cl)cc1` (configuration not stated) and `O=C1NC(SCc2ccc(F)cc2)=N/C1=C/c1cccc(OCc2ccc(Cl)cc2)c1` cannot be ordered by GI50: > 100 µM for the first, > 100 µM for the second.

Going from `O=C(CN1C(=O)S/C(=C\C(Cl)=C\c2ccccc2)C1=O)NCCCn1ccnc1` to `NS(=O)(=O)c1ccc(N2N=C(c3cccs3)CC2c2ccccc2O)cc1` (configuration not stated), the GI50 falls from 3.98 µM to 1.77 µM (2.2-fold).

Compared with `CCc1nc(N)nc(N)c1C#CC(C)c1cc(-c2ccnc(C)c2)c2oc(C)nc2c1` (configuration not stated), `COc1cc2nc(N3CCC[C@@H](NC4=CC(=O)c5ccccc5C4=O)C3)nc(N)c2cc1OC` is higher in GI50: < 0.026 µM for the first, 1.87 µM for the second.

`O=c1[nH]nc(-c2ccccc2)c2c(-c3ccccc3)onc12` and `Nc1ccccc1C#C/C=C\C#Cc1ccccc1F` are within 1.5-fold of each other in GI50: 4.97 µM for the first, 7.34 µM for the second.

Compared with `O=[N+]([O-])c1cc2c(ccc3occc32)o1`, `COc1ccc2c(c1)C=C1CSCC3=Cc4cc(OC)ccc4OC13O2` is 6.9-fold lower in GI50: 5 µM for the first, 0.729 µM for the second.

Going from `Cn1ncnc1C1c2n[nH]c(=O)c3cc(F)cc(c23)NC1c1ccc(F)cc1` (configuration not stated) to `CCc1c2c(nc3ccc(OCc4ccc(B5OC(C)(C)C(C)(C)O5)cc4)cc13)-c1cc3c(c(=O)n1C2)COC(=O)[C@]3(O)CC`, the GI50 falls from > 100 µM to 0.101 µM.

Compared with `CCCCN(CCCC)CCC(O)c1cc2ccc(C(F)(F)F)cc2c2cc(C(F)(F)F)ccc12` (configuration not stated), `CN(CCCN(C)CCC1CCCCC1)CCC1CCCCC1` is 2-fold lower in GI50: 12 µM for the first, 6.11 µM for the second.

With `C(=N/NC1=NCCN1)/c1c2ccccc2c(/C=N\NC2=NCCN2)c2ccccc12` the TGI was 0.68 µM and 0.735 µM and 0.81 µM.
With `c1ccc2c(CN3CCC(C4CCN(Cc5cccc6ccccc56)CC4)CC3)cccc2c1` the TGI was 27.5 µM and 37.4 µM.
